Laboratory results from PMC4336329 (PLoS ONE, 2015).
The campaign covered roughly 310,000 compounds. About 14,000 (4.5%) showed an effect of 50% or more. The effect is printed as a negative number. The list shows a part of the results.

molecular target: human ether-à-go-go-related gene (hERG) potassium channel (human, UniProt Q12809); experiment: primary screen, population patch clamp on CHO cells stably expressing hERG
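Note: peak tail current of the secondary pulse compared with the same well before compound.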

Sequence of human ether-à-go-go-related gene (hERG) potassium channel (Q12809 whole entry, looked up): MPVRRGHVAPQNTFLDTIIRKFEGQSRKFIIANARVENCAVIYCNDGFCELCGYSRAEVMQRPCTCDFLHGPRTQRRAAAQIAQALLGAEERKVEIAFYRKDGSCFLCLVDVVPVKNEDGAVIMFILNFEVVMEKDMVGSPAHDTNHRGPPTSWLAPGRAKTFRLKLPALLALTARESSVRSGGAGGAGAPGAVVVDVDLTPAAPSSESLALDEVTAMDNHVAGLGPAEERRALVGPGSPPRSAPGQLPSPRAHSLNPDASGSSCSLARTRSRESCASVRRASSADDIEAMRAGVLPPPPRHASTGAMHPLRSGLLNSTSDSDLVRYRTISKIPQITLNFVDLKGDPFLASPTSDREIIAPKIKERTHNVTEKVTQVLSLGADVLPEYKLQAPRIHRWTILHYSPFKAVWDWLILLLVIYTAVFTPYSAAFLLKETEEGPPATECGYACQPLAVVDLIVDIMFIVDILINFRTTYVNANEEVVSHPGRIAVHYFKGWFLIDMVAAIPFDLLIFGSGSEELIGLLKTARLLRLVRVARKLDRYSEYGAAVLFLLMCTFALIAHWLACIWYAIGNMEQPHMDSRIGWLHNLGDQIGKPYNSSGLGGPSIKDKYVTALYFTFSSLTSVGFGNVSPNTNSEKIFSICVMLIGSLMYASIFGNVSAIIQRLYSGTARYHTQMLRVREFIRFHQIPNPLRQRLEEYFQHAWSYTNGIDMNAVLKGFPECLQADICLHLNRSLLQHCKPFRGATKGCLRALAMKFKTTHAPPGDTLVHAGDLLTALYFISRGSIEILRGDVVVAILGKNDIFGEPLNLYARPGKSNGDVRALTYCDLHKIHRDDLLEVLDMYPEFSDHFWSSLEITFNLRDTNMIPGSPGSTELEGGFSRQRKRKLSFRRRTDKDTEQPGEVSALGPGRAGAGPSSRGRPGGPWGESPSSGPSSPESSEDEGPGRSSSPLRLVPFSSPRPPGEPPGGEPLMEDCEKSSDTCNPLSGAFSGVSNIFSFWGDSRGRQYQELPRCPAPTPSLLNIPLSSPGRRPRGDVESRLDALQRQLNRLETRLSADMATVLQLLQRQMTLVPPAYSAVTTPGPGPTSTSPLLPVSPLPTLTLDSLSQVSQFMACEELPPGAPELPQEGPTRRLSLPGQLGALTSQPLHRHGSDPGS

Row | Compound | hERG current change (%, negative = inhibition) at 10uM [%]
1 | O=C(CCNC(=O)c1ccccc1Cl)NCc1ccncc1 | 2.48
2 | CCCCOC(=O)c1ccc(NC(=O)C(=O)NCc2ccccn2)cc1 | 12.2
3 | COc1cc(/C=C/C(=O)N2CCCC2)cc(OC)c1OC | 1.51
4 | CC[C@@H](C)C(NC(=O)OC(C)(C)C)c1cn([C@@H](Cc2cc3ccccc3[nH]2)C(=O)N2CCN(C(=O)OC(C)(C)C)CC2)nn1 (stereo partly shown) | -13.4
5 | COC(=O)C1=C(CS(=O)(=O)c2ccccc2)NC(=O)NC1c1ccccc1 (stereo not shown) | 7.33
6 | COP(=O)(OC)C(NC(=O)/C=C/c1ccccc1)C(Cl)(Cl)Cl (stereo not shown) | 18
7 | O=C(NCC1CCCO1)c1ccccc1-c1nc(-c2ccccc2)no1 (stereo not shown) | -18.4
8 | Cc1cccc(/C(N)=N/OC(=O)C23CC4CC(CC(C4)C2)C3)c1 | -1.25
9 | O=C(CSc1nc(=O)n(CCN2CCOCC2)c2c1CCC2)Nc1ccc(OC(F)(F)F)cc1 | -71.8
10 | CCOc1ccc(S(=O)(=O)Nc2cccc(C(=O)N3CC(C)OC(C)C3)c2)cc1 (stereo not shown) | -3.45
11 | CCOc1ccc(CNC(=S)N/N=C\c2ccc([N+](=O)[O-])cc2)cc1 | -0.189
12 | Cc1cccc2c1N(CCOc1ccc(C(C)(C)C)cc1)C(=O)C2=O | -7.48
13 | O=C(CNC(=O)c1ccccc1)NCc1nc2ccccc2[nH]1 | 3.76
14 | COc1ccc(C2c3[nH]c4ccccc4c3CCN2CCCn2cccn2)c(C)c1C (stereo not shown) | -9.49
15 | O=C(c1ccc(Cn2cc(Cl)cn2)cc1)N1CCN(c2ccccc2)CC1 | -58.4
16 | Cc1cccc(N2CCN(S(=O)(=O)c3ccc4c(c3)OCCO4)CC2)c1C | -2.83
17 | CCOC(=O)c1sc(NC(=O)c2cccc(S(=O)(=O)N3CCN(C)CC3)c2)cc1C | -21.4
18 | Cc1c(C(=O)N2CCCCC2)c(S(=O)(=O)Nc2cccc(Br)c2)c(C)n1C | -4.02
19 | CN1C(C(=O)Nc2ccc(OC(F)(F)F)cc2)=CC(c2cccs2)=NS1(=O)=O | 2.74
20 | Cc1ccc(S(=O)(=O)CC(=O)Nc2ccc(F)c(F)c2F)cc1 | 14.4
21 | O=C(Nc1cccnc1)c1cc(F)c(F)cc1Cl | 19.7
22 | CC1CN(CCn2cnc3c(N)ncnc32)CC(C)O1 (stereo not shown) | 12.1
23 | CCOc1cc(/C=C2\NC(=S)N(c3c(C)n(C)n(-c4ccccc4)c3=O)C2=O)ccc1O | 9.12
24 | CCOc1cc(CNCCCN2CCOCC2)cc(Br)c1OCC(=O)Nc1cccc(C(F)(F)F)c1.Cl | -70.3
25 | CC1CN(C(=O)C(C)OC(=O)c2ccc3ncsc3c2)CC(C)O1 (stereo not shown) | 20.1
26 | CCOC(=O)c1c(C)n(CC(O)CN(C)C)c2cc(Br)c(OC)cc12.Cl (stereo not shown) | -51.5
27 | COc1ccc2oc3cc(C)[n+]([O-])c(-c4ccc(Cl)cc4)c3c2c1 | -8.3
28 | COc1ccc(CNc2oc(COc3ccccc3Cl)nc2C#N)cc1 | 3.67

Row | Compound | hERG current change (%, negative = inhibition) at 10uM [%]
29 | CCOc1ccc(CN2CCC(Cc3ccccc3)CC2)cc1 | -78.3
30 | COc1cc(C2/C(=C(/O)c3ccc(OCC(C)C)cc3)C(=O)C(=O)N2CCN(C)C)ccc1O (stereo not shown) | 5.74
31 | COc1cccc(C(CC(=O)NCc2ccco2)NS(=O)(=O)c2ccc(C)cc2)c1OC (stereo not shown) | -16.6
32 | Cc1cccc(NC(=O)c2cc(=O)n(Cc3ccccc3)c(=O)[nH]2)c1 | -2.18
33 | CC(NC(=O)c1ccc2ccccc2n1)c1ccccc1 (stereo not shown) | -6.17
34 | CC(=O)/C(=N\Nc1ccc(C)cc1)N1CCOCC1 | 5.27
35 | O=C(NCc1ccccc1F)C1CCCN1C(=O)NC1CCCCC1 (stereo not shown) | -11.8
36 | Cc1ccc(-n2c(O)c(C=NCCN(C)C)c(=O)[nH]c2=O)cc1 | 20
37 | Cc1c(C)n(C)c2ccc(C(=O)Nc3cccc4ccccc34)cc12 | 10.5
38 | O=C(COc1ccccc1)NCC(=O)Nc1cccc(S(=O)(=O)NC2=NCCC2)c1 | -2.56
39 | Cc1ccc(C(=O)N2CCN(c3ccccc3Cl)CC2)cc1[N+](=O)[O-] | -35.3
40 | Oc1ccccc1Cc1c(O)ccc2ccccc12 | 6.84
41 | CCc1cccc(CC)c1NC(=S)NCc1ccc2c(c1)OCO2 | -8.67
42 | CC(C)[C@H](NC(=O)OC(C)(C)C)C(=O)N/N=C/c1cccc2nccnc12 | -3.53
43 | COc1ccccc1CCC(=O)Nc1cc(S(=O)(=O)N2CCOCC2)ccc1N1CCCC1 | -30.8
44 | Cc1nnc(NC(=O)CN2CCN(Cc3ccccc3)CC2)s1 | 12.1
45 | COC(=O)C(NNc1ccccc1C)(NC(=O)c1ccc(F)cc1)C(F)(F)F (stereo not shown) | -1.2
46 | C/C(=N/NC(=O)c1nnn(-c2nonc2N)c1COc1ccccc1)c1ccccc1Cl | 11.2
47 | Cl.Clc1ccc(OCc2nnc(SCCN3CCCCC3)n2Cc2ccco2)cc1 | -75.9
48 | Cc1[nH]c2ccccc2c1SCC(=O)Nc1nccs1 | 0.599
49 | CC1CN(C(=O)CSc2cn(CC(=O)N3CCOCC3)c3ccccc23)CC(C)O1 (stereo not shown) | 17.3
50 | CCC1CCCCN1CCCNC(=O)c1cn(C)c2ccc(S(=O)(=O)N3CCOCC3)cc2c1=O (stereo not shown) | 21.3
51 | COC(=O)c1ccc(Nc2nc(C)cc(=O)[nH]2)cc1 | -2.1
52 | COc1cc(CNn2cnnc2)ccc1OCC(=O)NC(C)(C)C | 1.29
53 | O=C1NC(=O)N(Cc2ccccc2F)C1=O | 21.3
54 | CC(C)=CCN1CCN(Cc2cnc(C)s2)CC1CCO (stereo not shown) | 11.8
55 | CCN(CC(=O)Nc1ccc(NC(C)=O)cc1)C(=O)CC1OC(=O)c2ccccc21 (stereo not shown) | 5.6
